Data as given in PubChem BioAssay AID1460 (National Center for Advancing Translational Sciences (NCATS), 2008).
Among all 270,000 compounds or so, about 5,800 (2.1%) were called active. This list was built around the results that the source calls inconclusive (neither active nor inactive); the mix of calls is not that of the screen. Calls follow the shape of the dose curve; as a rule, active = well fitted inhibition curve with a large enough effect; inconclusive = small, poorly fitted or top-dose-only effect; inactive = flat fitted curve, though single readings scatter. Where the call is inconclusive, the potency comes from a doubtful curve fit.

Target: Microtubule-associated protein tau (Homo sapiens) (UniProt P10636)
Sequence of UniProt P10636 (P10636 whole entry, looked up): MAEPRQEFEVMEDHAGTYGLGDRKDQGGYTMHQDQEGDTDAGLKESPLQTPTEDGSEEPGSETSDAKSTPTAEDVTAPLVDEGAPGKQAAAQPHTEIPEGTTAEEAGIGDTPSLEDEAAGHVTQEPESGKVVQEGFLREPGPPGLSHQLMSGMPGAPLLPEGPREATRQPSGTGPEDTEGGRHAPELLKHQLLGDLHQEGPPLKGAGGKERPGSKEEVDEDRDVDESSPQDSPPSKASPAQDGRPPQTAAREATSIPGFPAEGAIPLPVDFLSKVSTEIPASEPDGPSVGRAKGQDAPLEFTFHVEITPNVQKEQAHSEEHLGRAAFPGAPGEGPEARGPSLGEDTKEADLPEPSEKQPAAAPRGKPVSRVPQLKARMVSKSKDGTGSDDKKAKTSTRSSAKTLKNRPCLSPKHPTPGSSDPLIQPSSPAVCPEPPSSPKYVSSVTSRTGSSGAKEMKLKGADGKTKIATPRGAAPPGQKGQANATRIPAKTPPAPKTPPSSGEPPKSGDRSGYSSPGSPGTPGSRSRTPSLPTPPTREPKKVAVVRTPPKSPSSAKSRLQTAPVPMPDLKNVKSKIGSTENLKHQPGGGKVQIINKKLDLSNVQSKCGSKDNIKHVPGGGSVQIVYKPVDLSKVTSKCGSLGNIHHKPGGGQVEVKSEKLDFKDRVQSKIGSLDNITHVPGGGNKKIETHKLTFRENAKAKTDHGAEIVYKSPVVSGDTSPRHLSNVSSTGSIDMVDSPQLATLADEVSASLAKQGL
Experiment: qHTS for Inhibitors of Tau Fibril Formation, Thioflavin T Binding; also: nearly all actives have a fitted effect of over 55% in size
Conditions: recombinant tau K18 P301L (four-repeat tau fragment), heparin-induced fibrillization, ThT fluorescence; series mostly up to 57.4 µM
Summary of the method: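 K18 P301L tau (15 uM + 0.24 uM Alexa 594-tagged), heparin 20 uM, NaOAc pH 7, 6 h 37 C; ThT 30 uM, 1 h RT, ex 450/em 510 nm.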
Potency is read from the fitted curve at half-maximal effect; tags tell the direction and shape of the fitted curve.

Structure (SMILES) | Potency
O=C(Nc1nc2c(s1)CN(Cc1ccccc1)CC2)c1cccc(S(=O)(=O)N2CCc3ccccc32)c1 | inconclusive: 14.1 µM [inhibitor, partial curve]
CCN1C(=O)C2(C(C#N)=C(N)Oc3c2c(C)nn3-c2ccccc2)c2ccccc21 (stereo not given) | active: 15.8 µM
CCOC(=O)C1=C(C)c2ccccc2OC1(CC)C(=O)OCC (stereo not given) | inactive
Cc1c(C#N)c(N=CN(C)C)c(C(=O)c2ccc(Br)cc2)n1-c1ccc(Cl)cc1 | inconclusive: 12.6 µM [inhibitor, partial curve, poor fit]
Nc1c(N2CCCC2)cc(Cl)c2nonc12 | active: 2.82 µM
O=C(COc1ccc2ccccc2c1)NC1CC(=O)N(c2cccc(F)c2)C1 (stereo not given) | inactive
O=C(Nc1nc(-c2cccs2)cs1)c1cc2ccccc2oc1=O | inconclusive: 2.82 µM [inhibitor, partial curve]
CCN1CCN(Cc2ccc(NC(=O)c3cc(NC(=O)c4cnnc5ccccc45)cc(OC)c3)cc2C(F)(F)F)CC1 | inconclusive: 5.01 µM [inhibitor, partial curve, poor fit]
O=c1oc2ccccc2cc1-c1csc(NN=C2CCCC2)n1 | inconclusive: 3.55 µM [inhibitor, full curve]
COc1ccc([C@H]2[C@H](C(=O)OC(C)(C)C)N3N=Cc4ccccc4C3C23C(=O)c2ccccc2C3=O)cc1OC (stereo not given in full) | inconclusive: 25.1 µM [inhibitor, partial curve]
CCOC(=O)c1cc(C)n(-c2ccc(OC)c(OC)c2)c1C | inconclusive: 31.6 µM [inhibitor, single point]
COc1ccc(-n2nnc3c(SCC(=O)Nc4ccc5c(c4)OCCO5)ncnc32)cc1 | inconclusive: 1.78 µM [inhibitor, full curve, poor fit]
Cc1c(Cl)cccc1NS(=O)(=O)c1ccc2c(c1)C1C=CCC1C(c1ccc(C(=O)O)cc1)N2 (stereo not given) | active: 25.1 µM
Cn1c(=O)[nH]c2cc(-c3noc(-c4ccc(C#N)cc4)n3)ccc21 | inconclusive: 3.16 µM [inhibitor, full curve]
CCOC(=O)Cn1c(C)c(C#N)c2ccccc21 | inactive
COc1ccc(C(=O)Nc2ccc(S(=O)(=O)N3CCOCC3)cc2)cc1OC | inactive
Cc1ccc(CC(=O)NCCCc2ccccc2)cc1 | inactive
Cc1ccc2c(c1)C(c1ccccc1)N(C(=O)Cc1ccc(F)cc1)CC(=O)N2 (stereo not given) | inconclusive: 11.2 µM [inhibitor, partial curve]
COC(=O)CCc1nc2ccccc2[nH]c1=O | inactive
O=C(O)c1ccccc1NSc1ccccc1[N+](=O)[O-] | inconclusive: 14.1 µM [inhibitor, partial curve]
